For assay [1], the target named is T1, mouse TRIM21 PRYSPRY domain with N-terminal 6xHis tag (mouse).
T1 construct: Expressed from pET28a in E. coli; also called mTRIM21
T1 chain: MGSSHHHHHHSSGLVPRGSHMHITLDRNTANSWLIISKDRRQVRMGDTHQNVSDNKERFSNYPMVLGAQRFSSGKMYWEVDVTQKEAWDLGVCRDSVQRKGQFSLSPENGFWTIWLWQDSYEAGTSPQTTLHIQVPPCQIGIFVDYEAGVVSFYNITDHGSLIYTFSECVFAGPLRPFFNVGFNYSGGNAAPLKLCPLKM
Description: SPR, Ab captured on Protein L, 100 nM mTRIM21. On the technique in general: Surface plasmon resonance follows binding to a sensor surface in real time, without labels.

For assay [2], the target named is T2, human TRIM21 PRYSPRY domain with N-terminal 6xHis tag (human).
T2 construct: Expressed from pET28a in E. coli; also called hTRIM21
T2 chain: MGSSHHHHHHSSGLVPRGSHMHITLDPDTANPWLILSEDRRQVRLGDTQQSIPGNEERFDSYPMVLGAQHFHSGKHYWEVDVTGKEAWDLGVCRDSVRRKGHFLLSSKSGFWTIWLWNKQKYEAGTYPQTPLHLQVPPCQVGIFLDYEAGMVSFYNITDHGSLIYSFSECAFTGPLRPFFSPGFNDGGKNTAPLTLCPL
Description: SPR, Ab captured on Protein L, 100 nM hTRIM21.

Assay [3] deals with T3, human FcRn (human, UniProt P55899 partial chain; P61769 partial chain, limits assumed).
T3 construct: also called hFcRn
T3 sequence (P55899 24-290 limits assumed, form in doubt, chain 1 of 2): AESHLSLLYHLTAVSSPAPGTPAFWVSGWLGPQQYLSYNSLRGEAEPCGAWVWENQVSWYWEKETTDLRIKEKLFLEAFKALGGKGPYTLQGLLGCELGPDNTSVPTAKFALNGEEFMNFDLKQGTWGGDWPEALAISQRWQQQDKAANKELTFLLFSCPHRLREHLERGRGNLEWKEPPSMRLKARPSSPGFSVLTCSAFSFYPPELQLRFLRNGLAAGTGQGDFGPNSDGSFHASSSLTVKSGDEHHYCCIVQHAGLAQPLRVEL
T3 sequence (P61769 21-119 limits assumed, form in doubt, chain 2 of 2, further chain): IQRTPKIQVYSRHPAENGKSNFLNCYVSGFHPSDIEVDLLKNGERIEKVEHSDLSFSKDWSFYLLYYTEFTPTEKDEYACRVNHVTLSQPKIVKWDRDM
The assay is described as follows: SPR pH 6.0, Ab captured on Protein L, 1 uM hFcRn.

B1: MRAH-G1d/MRAL-KT0 Q438D (antibody, human IgG1, kappa)
heavy: QVQLQESGPGLVRPSQTLSLTCTVSGYSITSDHAWSWVRQPPGRGLEWIGYISYSGITTYNPSLKSRVTMLRDTSKNQFSLRLSSVTAADTAVYYCARSLARTTAMDYWGQGSLVTVSS[human IgG1 constant region with Q438D (EU numbers) omitted here]
light: DIQMTQSPSSLSASVGDRVTITCRASQDISSYLNWYQQKPGKAPKLLIYYTSRLHSGVPSRFSGSGSGTDFTFTISSLQPEDIATYYCQQGNTLPYTFGQGTKVEIKRTVAAPSVFIFPPSDEQLKSGTASVVCLLNNFYPREAKVQWKVDNALQSGNSQESVTEQDSKDSTYSLSSTLTLSKADYEKHKVYACEVTHQGLSSPVTKSFNRGEC
In the case of B1, in assay [1], the “mTRIM21 binding level ratio (variant/control antibody)” value stood at 2.6. Besides, the “hTRIM21 binding level ratio (variant/control antibody)” value in assay [2] was 0.845. Besides, the “hFcRn binding level ratio (variant/control antibody)” value in assay [3] worked out at 0.77.

B2: MRAH-G1d/MRAL-KT0 Q438T (antibody, human IgG1, kappa)
heavy: QVQLQESGPGLVRPSQTLSLTCTVSGYSITSDHAWSWVRQPPGRGLEWIGYISYSGITTYNPSLKSRVTMLRDTSKNQFSLRLSSVTAADTAVYYCARSLARTTAMDYWGQGSLVTVSS[human IgG1 constant region with Q438T (EU numbers) omitted here]
light: B1 light
Regarding B2, the “mTRIM21 binding level ratio (variant/control antibody)” value in assay [1] was 2.21. Also, the “hTRIM21 binding level ratio (variant/control antibody)” value in assay [2] was 0.755. Further, the “hFcRn binding level ratio (variant/control antibody)” value in assay [3] stood at 0.97.

B3: MRAH-G1d/MRAL-KT0 S440W (antibody)
heavy: QVQLQESGPGLVRPSQTLSLTCTVSGYSITSDHAWSWVRQPPGRGLEWIGYISYSGITTYNPSLKSRVTMLRDTSKNQFSLRLSSVTAADTAVYYCARSLARTTAMDYWGQGSLVTVSS[human IgG1 constant region with S440W (EU numbers) omitted here]
light: B1 light
Take B3: the “mTRIM21 binding level ratio (variant/control antibody)” value in assay [1] was found to be 2.66. Besides, in assay [2], the “hTRIM21 binding level ratio (variant/control antibody)” value was 1.11. Besides, the “hFcRn binding level ratio (variant/control antibody)” value in assay [3] was 0.93.

B4: MRAH-G1d/MRAL-KT0 S440K (antibody)
heavy: QVQLQESGPGLVRPSQTLSLTCTVSGYSITSDHAWSWVRQPPGRGLEWIGYISYSGITTYNPSLKSRVTMLRDTSKNQFSLRLSSVTAADTAVYYCARSLARTTAMDYWGQGSLVTVSS[human IgG1 constant region with S440K (EU numbers) omitted here]
light: B1 light
In the case of B4, in assay [1], the “mTRIM21 binding level ratio (variant/control antibody)” value turned out to be 2.8. Also, the “hTRIM21 binding level ratio (variant/control antibody)” value in assay [2] stood at 0.528. Further, the “hFcRn binding level ratio (variant/control antibody)” value in assay [3] was determined as 0.95.

B5: MRAH-G1d/MRAL-KT0 S440F (antibody)
heavy: QVQLQESGPGLVRPSQTLSLTCTVSGYSITSDHAWSWVRQPPGRGLEWIGYISYSGITTYNPSLKSRVTMLRDTSKNQFSLRLSSVTAADTAVYYCARSLARTTAMDYWGQGSLVTVSS[human IgG1 constant region with S440F (EU numbers) omitted here]
light: B1 light
For B5, the “mTRIM21 binding level ratio (variant/control antibody)” value in assay [1] is 2.62. Moreover, the “hTRIM21 binding level ratio (variant/control antibody)” value in assay [2] was 1.04. The “hFcRn binding level ratio (variant/control antibody)” value in assay [3] is 0.94.

B6: MRAH-G1d/MRAL-KT0 S440D (antibody)
heavy: QVQLQESGPGLVRPSQTLSLTCTVSGYSITSDHAWSWVRQPPGRGLEWIGYISYSGITTYNPSLKSRVTMLRDTSKNQFSLRLSSVTAADTAVYYCARSLARTTAMDYWGQGSLVTVSS[human IgG1 constant region with S440D (EU numbers) omitted here]
light: B1 light
Regarding B6, the “mTRIM21 binding level ratio (variant/control antibody)” value in assay [1] was 2. Moreover, the “hTRIM21 binding level ratio (variant/control antibody)” value in assay [2] came out at 1.31. The “hFcRn binding level ratio (variant/control antibody)” value in assay [3] was 0.88.

B7: MRAH-G1d/MRAL-KT0 S440T (antibody)
heavy: QVQLQESGPGLVRPSQTLSLTCTVSGYSITSDHAWSWVRQPPGRGLEWIGYISYSGITTYNPSLKSRVTMLRDTSKNQFSLRLSSVTAADTAVYYCARSLARTTAMDYWGQGSLVTVSS[human IgG1 constant region with S440T (EU numbers) omitted here]
light: B1 light
In the case of B7, the “mTRIM21 binding level ratio (variant/control antibody)” value in assay [1] amounted to 2.45. The “hTRIM21 binding level ratio (variant/control antibody)” value in assay [2] turned out to be 0.98. Besides, the “hFcRn binding level ratio (variant/control antibody)” value in assay [3] turned out to be 0.92.

B8: MRAH-G1d/MRAL-KT0 S440V (antibody)
heavy: QVQLQESGPGLVRPSQTLSLTCTVSGYSITSDHAWSWVRQPPGRGLEWIGYISYSGITTYNPSLKSRVTMLRDTSKNQFSLRLSSVTAADTAVYYCARSLARTTAMDYWGQGSLVTVSS[human IgG1 constant region with S440V (EU numbers) omitted here]
light: B1 light
For the molecule B8, the “mTRIM21 binding level ratio (variant/control antibody)” value in assay [1] is 2.21. Besides, the “hTRIM21 binding level ratio (variant/control antibody)” value in assay [2] stood at 0.908. Besides, the “hFcRn binding level ratio (variant/control antibody)” value in assay [3] was found to be 0.92.

B9: MRAH-G1d/MRAL-KT0 Q438R (antibody, human IgG1, kappa)
heavy: QVQLQESGPGLVRPSQTLSLTCTVSGYSITSDHAWSWVRQPPGRGLEWIGYISYSGITTYNPSLKSRVTMLRDTSKNQFSLRLSSVTAADTAVYYCARSLARTTAMDYWGQGSLVTVSS[human IgG1 constant region with Q438R (EU numbers) omitted here]
light: B1 light
On to B9, for which the “mTRIM21 binding level ratio (variant/control antibody)” value in assay [1] came to 1.71. Further, in assay [2], the “hTRIM21 binding level ratio (variant/control antibody)” value was determined as 0.404. In addition, the “hFcRn binding level ratio (variant/control antibody)” value in assay [3] is 0.97.

B10: MRAH-G1d/MRAL-KT0 S440M (antibody)
heavy: QVQLQESGPGLVRPSQTLSLTCTVSGYSITSDHAWSWVRQPPGRGLEWIGYISYSGITTYNPSLKSRVTMLRDTSKNQFSLRLSSVTAADTAVYYCARSLARTTAMDYWGQGSLVTVSS[human IgG1 constant region with S440M (EU numbers) omitted here]
light: B1 light
Take B10: in assay [1], the “mTRIM21 binding level ratio (variant/control antibody)” value was determined as 2.55. In addition, in assay [2], the “hTRIM21 binding level ratio (variant/control antibody)” value turned out to be 0.999. Further, the “hFcRn binding level ratio (variant/control antibody)” value in assay [3] is 0.97.

B11: MRAH-G1d/MRAL-KT0 S440L (antibody)
heavy: QVQLQESGPGLVRPSQTLSLTCTVSGYSITSDHAWSWVRQPPGRGLEWIGYISYSGITTYNPSLKSRVTMLRDTSKNQFSLRLSSVTAADTAVYYCARSLARTTAMDYWGQGSLVTVSS[human IgG1 constant region with S440L (EU numbers) omitted here]
light: B1 light
Regarding B11, in assay [1], the “mTRIM21 binding level ratio (variant/control antibody)” value is 2.27. Also, the “hTRIM21 binding level ratio (variant/control antibody)” value in assay [2] came to 0.96. Moreover, in assay [3], the “hFcRn binding level ratio (variant/control antibody)” value came to 0.93.

B12: MRAH-G1d/MRAL-KT0 Q438M (antibody, human IgG1, kappa)
heavy: QVQLQESGPGLVRPSQTLSLTCTVSGYSITSDHAWSWVRQPPGRGLEWIGYISYSGITTYNPSLKSRVTMLRDTSKNQFSLRLSSVTAADTAVYYCARSLARTTAMDYWGQGSLVTVSS[human IgG1 constant region with Q438M (EU numbers) omitted here]
light: B1 light
Turning to B12, the “mTRIM21 binding level ratio (variant/control antibody)” value in assay [1] was determined as 1.8. Also, the “hTRIM21 binding level ratio (variant/control antibody)” value in assay [2] came to 0.971. Also, the “hFcRn binding level ratio (variant/control antibody)” value in assay [3] worked out at 0.95.

(Values after US20210238308A1 (Chugai, published 2021).)
